{"source": "the supplement of paper PMC11417369", "note": "± gives the standard deviation of the averaged measurements. The list shows a part of the results."}
{"system": "PfAP2-I AP2 domain 3 (GST-tagged)", "assay": "gcPBM binding intensity (ln(normalized median fluorescence intensity)); higher = stronger DNA binding", "procedure,_shortened": "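Each value is the highest Masliner-normalised natural-log median intensity across replicate spots of either orientation of a probe. The probes were primer-extended double-stranded 36-bp intergenic genomic sequences on an Agilent 4 × 180k array, alongside negative controls, exposed for 1 h to GST-tagged P. falciparum DNA-binding domains expressed in E. coli. Bound protein was picked up with Alexa488 anti-GST antibody and scanned at 488 nm.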"}
{"sequence": "TTCTTTTCTCTTTTAATCATATTATATAAATGAATA [CACACA_negctrl_site820]", "gcPBM binding intensity (ln)": "7.64 ± 0.67"}
{"sequence": "CTTTTCTTTTTTTTTTGTACATAAAATTATTCCTTA [XGTACX_site3924]", "gcPBM binding intensity (ln)": "7.84 ± 0.49"}
{"sequence": "AATATAGTCACACATACACACATATAGATTTATATA [CACACA_site7223]", "gcPBM binding intensity (ln)": "7.99 ± 0.55"}
{"sequence": "TTTTGTTGCTCTTTTTTTTTTTTTTTTAACTGTATG [CACACA_negctrl_site1072]", "gcPBM binding intensity (ln)": "7.71 ± 0.73"}
{"sequence": "AACCAATATGTGTATACACACATAAATATAAATATA [CACACA_site7729]", "gcPBM binding intensity (ln)": "7.83 ± 0.35"}
{"sequence": "AAAAAAAAAAAAAGGTGTACATAAGTAAATTCATAT [XGTACX_site4206]", "gcPBM binding intensity (ln)": "8.23 ± 0.28"}
{"sequence": "TATACATATAAATTGTGTACACATATATATATATTT [XGTACX_site7875]", "gcPBM binding intensity (ln)": "8.13 ± 0.18"}
{"sequence": "TAAAAGGAAAAAAAAGCACACACAATATTACTTGAA [CACACA_site8831]", "gcPBM binding intensity (ln)": "7.75 ± 0.73"}
{"sequence": "TATCAAAATTAGTATACACACAAAATTATTCAAATA [CACACA_site2232]", "gcPBM binding intensity (ln)": "7.47 ± 0.38"}
{"sequence": "AATATATAAATTAATACATGCACATATAGAAAGGGA [TGCATGCA_site472]", "gcPBM binding intensity (ln)": "8.7 ± 0.52"}
{"sequence": "CTTTTTACTTAATACACACACACACTAGAAAAAAAA [CACACA_site4680]", "gcPBM binding intensity (ln)": "8.35 ± 0.27"}
{"sequence": "AAAAGATTGCTCCGCATGCACCTCCAAAAGTTCCTT [GTGCAC_site9993]", "gcPBM binding intensity (ln)": "8.62 ± 0.36"}
{"sequence": "TACAAAAGCGATACGGCACACATTTCCTGTTTAAAT [CACACA_site2746]", "gcPBM binding intensity (ln)": "8.935 ± 0.078"}
{"sequence": "TTTGCTTCCAAAAGTCGTACAAAAAATATTAAATAT [XGTACX_site4171]", "gcPBM binding intensity (ln)": "7.88 ± 0.19"}
{"sequence": "ACAGAATACATATACACACATACAAAAAAGTGCATA [CACACA_site987]", "gcPBM binding intensity (ln)": "8.44 ± 0.38"}
{"sequence": "TCATACTGTATATTTTGTACTTATATATATATTATA [XGTACX_site6136]", "gcPBM binding intensity (ln)": "7.87 ± 0.53"}
{"sequence": "CATTATGTTGTAAATGCACACATACATATACACAGT [CACACA_site8990]", "gcPBM binding intensity (ln)": "9.63 ± 0.028"}
{"sequence": "ATAATAAGCAAACACACACACACAAAAAAAAAAAAA [CACACA_site720]", "gcPBM binding intensity (ln)": "8.09 ± 0.77"}
{"sequence": "TTATTTTGTTTTAAAAGTACACACTTTTAATTAGAT [XGTACX_site2271]", "gcPBM binding intensity (ln)": "8.05 ± 0.19"}
{"sequence": "TATATAAACACGTACACACACATATAGGTATTTATA [CACACA_site7615]", "gcPBM binding intensity (ln)": "8.09 ± 0.31"}
{"sequence": "TCTTAATTTGTTATATGTACATAATATAATTGTATA [XGTACX_site5184]", "gcPBM binding intensity (ln)": "7.79 ± 0.32"}
{"sequence": "TATTTTGTAATAATTACACACGGAATTATAACAGAA [CACACA_site2355]", "gcPBM binding intensity (ln)": "7.99 ± 0.5"}
{"sequence": "ATATATATATTTATATTTATATGTAAATATCAACGT [TGCATGCA_negctrl_site32]", "gcPBM binding intensity (ln)": 8.8}
{"sequence": "TTATATTAATAAAAAGAAAATCATTTTTTCTTTTAT [CACACA_negctrl_site1595]", "gcPBM binding intensity (ln)": "7.17 ± 0.51"}
